The text below walks through data of ChEMBL document CHEMBL4888484, “Replenishing the malaria drug discovery pipeline: Screening and hit evaluation of the MMV Hit Generation Library 1 (HGL1) against asexual blood stage Plasmodium falciparum ,using a nano luciferase reporter read-out” (2022).

Among all 150,000 compounds or so, about 540 (0.36%) showed an effect of 50% or more. Some of the results follow.

The assay concerns Plasmodium falciparum. The assay is described as follows: Primary screen in NF54 nanoGlo assay, in single point, at 2uM, 72h; a lower Z score goes with more inhibition. It counts as functional, Erythrocyte. As to conditions: timepoint 72 hour.
Usually % Inhibition stands for the relative decrease from the control value, in per cent. `Cc1ccccc1NS(=O)(=O)CC(C)C`: the “% Inhibition” value was -5% and the Z score was 0.65.
The like results for `CCCCN1CCOC[C@H]1C(=O)Nc1cccc(-n2cnnc2C)c1` were, in that order, -8% and 1.17.
The like results for `Cc1cccc(CN2C[C@H](O)[C@@H](N3CCN(c4ccccn4)CC3)C2)c1` were, in that order, -29% and 2.55.
On the same counts, the results for `O=C(Cc1cccs1)NCCc1c[nH]cn1` are -8% and 1.57.
As for `Cc1ccccc1OCCCC(=O)N1CCCc2cc(S(=O)(=O)N3CCCC3)ccc21`, the “% Inhibition” value is reported as -1% and the Z score came out at 0.13.
In the case of `COCC(C)(C)NCc1ccc(OC)c(OC)c1`, the “% Inhibition” value is given as -3% and the Z score turned out to be 0.37.
On the same counts, the results for `O=C(c1cccc(F)c1)N(CC(=O)N1CCc2sccc2C1COc1ccc(Cl)cc1)CC1CCCO1` (stereo unspecified) are -11% and 1.4.
The like results for `CCOc1ccc2c(c1)[C@@H](C)CC(C)(C)N2S(=O)(=O)c1cc(C(=O)N(C)C)n(C)c1` were, in that order, 1% and -0.12.
On the same counts, the results for `O=C(NC[C@H]1Cn2cc(-c3ccccc3)nc2CO1)NC1CCCCC1` are 31% and -3.58.
Consider `CCCn1nc(-c2cc(C)sc2C)cc1C(=O)Nc1ccc(F)cc1`, for which the “% Inhibition” value is reported as -2% and the Z score was 0.18.
The like results for `O=C(CC1CCOCC1)N1CCC(Cc2ccccc2)CC1` were, in that order, -5% and 0.98.
Take `Cc1cccc(C)c1NCC(=O)Nc1nc(C#N)c(C#N)[nH]1`: the “% Inhibition” value is on record as -1% and the Z score is on record as 0.1.
The like results for `CC1(C)NC(=O)N(Cc2nc3cc(C(F)(F)F)ccc3o2)C1=O` were, in that order, -4% and 0.76.
The like results for `Cc1nn(C)c2nc(O[C@@H](C)C(=O)N3CCCCCC3)cc(-c3ccccc3)c12` were, in that order, -1% and 0.11.
Take `NC(=O)C1(NCCOc2ccc(F)cc2)CCCCC1`: the “% Inhibition” value is listed as -1% and the Z score came to 0.13.
`Cc1noc(C2CN(C(=O)c3c(C)nn(C)c3C)CC2c2ccccc2)n1` (stereo unspecified): the “% Inhibition” value is -9% and the Z score was found to be 1.71.
Turning to `CN(CCn1cccn1)S(=O)(=O)c1ccc2c(c1)OCCCO2`, the “% Inhibition” value stood at 3% and the Z score is reported as -0.47.
In the case of `CN(C)S(=O)(=O)c1cccc(C(=O)NCC(C)(C)CNC(=O)c2cccc(S(=O)(=O)N(C)C)c2)c1`, the “% Inhibition” value is reported as -6% and the Z score amounted to 1.06.
As for `COC(=O)NC[C@H](O)c1ccc(-c2ccco2)cc1`, the “% Inhibition” value is given as -5% and the Z score was found to be 0.61.
As for `Cc1ccc2c(c1)CCCN2C(=O)c1c(-c2ccccc2)noc1C`, the “% Inhibition” value is on record as -12% and the Z score was 1.37.
For the compound `CC(C)OCCS(=O)(=O)NCc1cccc(Cl)c1F`, the “% Inhibition” value is reported as -2% and the Z score came out at 0.16.
As for `CC(C)c1nnc2n1[C@H](C(=O)NCC(N)=O)CCCC2`, the “% Inhibition” value is listed as -14% and the Z score is listed as 1.68.
Turning to `COc1ccc(C(=O)CC#N)cc1OC`, the “% Inhibition” value is reported as -3% and the Z score was 0.34.
Turning to `Cn1nc(C(F)(F)F)cc1CNC(=O)Nc1cnnn1C`, the “% Inhibition” value was determined as 2% and the Z score is -0.37.
The like results for `CC[C@H](C)n1cc(C(=O)NCc2ccc(Cl)s2)c(=O)c(C(=O)N2CCCCCC2)c1` were, in that order, 10% and -1.7.
As to `O=S(=O)(NC1CCc2ccc(Cl)cc21)[C@H]1COC[C@@H]1O` (stereo partly specified), the “% Inhibition” value is given as -11% and the Z score was found to be 1.47.
Turning to `CC1CN(Cc2ccccc2)CCC1N(C)Cc1cscn1` (stereo unspecified), the “% Inhibition” value is listed as 0% and the Z score is listed as -0.03.
The like results for `CCN(CC)[C@H]1CCN(S(=O)(=O)c2ccc3c(c2)CCO3)C1` were, in that order, -6% and 0.79.
For `C1CCN2CCC[C@@H](CCc3nc(CN4CCOCC4)no3)[C@H]2C1`, the “% Inhibition” value was -9% and the Z score is 0.98.
On the same counts, the results for `CCN(CC)c1ccc(NC(=O)c2ccc(OCC(C)C)nc2)cn1` are -8% and 1.26.
For the compound `O=C(NCc1nc2c(s1)CCCC2)[C@@H]1COc2ccc(O)cc2O1`, the “% Inhibition” value is -7% and the Z score worked out at 1.14.
For `Cc1ccccc1NC(=O)Cc1nnc2c(-c3nc(C4CC4)no3)cccn12`, the “% Inhibition” value is listed as -7% and the Z score came out at 1.03.
The like results for `CC(C)=CCC/C(C)=C/CNC(=O)Nc1ccnn1C` were, in that order, -14% and 1.53.
The like results for `O=C1CC(C(=O)NCc2ccc(NC(=O)C(F)(F)F)nc2)C1` were, in that order, -3% and 0.48.
On the same counts, the results for `Cc1ccc(C(=O)Cn2cnc3c2c(=O)n(C2CCCC2)c(=O)n3-c2ccccc2Cl)cc1` are -13% and 1.87.
Regarding `COc1ccc(-c2noc3nc(C)cc(C(=O)Nc4c(C)nn(Cc5ccc(F)cc5)c4C)c23)cc1`, the “% Inhibition” value is recorded as -6% and the Z score is recorded as 0.83.
The like results for `O=C(Nc1ccc(Cl)cn1)c1cccc2ccccc12` were, in that order, -6% and 1.15.
On the same counts, the results for `CCc1cc(NC(=O)[C@H]2CC(=O)N(c3ccc(C)cc3)C2)n(C)n1` are -9% and 1.6.
On the same counts, the results for `COc1ccc(OC)c(CNC(=O)COc2ccc(N3CCN(C4CCCCC4)CC3)nn2)c1` are 4% and -0.71.
Turning to `CC(C)CC(=O)C1CCCN(C(=O)CCC2(Cc3cccc4ccccc34)CCC(=O)N2)C1` (stereo unspecified), the “% Inhibition” value was found to be 13% and the Z score is -1.7.
Turning to `Cc1cc(C(=O)N[C@H]2[C@H](O)[C@H](O)C[C@@H]2c2ccccc2)nn1C`, the “% Inhibition” value came to 10% and the Z score is reported as -1.3.
As for `Nc1c2c(-c3cccc(Cl)c3)nc(NCc3ccccn3)nc2nn1-c1cccc(F)c1`, the “% Inhibition” value was -9% and the Z score is 1.1.
On the same counts, the results for `Cc1n[nH]c(C)c1-c1ccc(NCCO)nn1` are 5% and -0.8.
